Data reported in the supplement of paper PMC12578646, “Prodrug florfenicol amine is activated by intrinsic resistance to target Mycobacterium abscessus” (Nature Microbiology, 2025).

Experiments:
Test in all cases: growth relative to untreated wells; higher = more growth (less inhibition)
[1] = tested on: Mycobacterium abscessus ATCC 19977 WhiB7 L37P
Description: (§1)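 384-well two-fold dose series, two replicates; 5 days at 37 °C, then 24 h with resazurin; fluorescence scaled to growth and killed controls.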

[2] = tested on: Mycobacterium abscessus ATCC 19977 WhiB7 A51T
Description: as §1

[3] = tested on: Mycobacterium abscessus ATCC 19977 Eis2 Y255*
Description: as §1

[4] = tested on: Mycobacterium abscessus ATCC 19977 WhiB7 T70fs
Description: as §1

[5] = tested on: Mycobacterium abscessus ATCC 19977 Eis2 Y284*
Description: as §1

CC(=O)NC[C@H]1CN(c2ccc(N3CCOCC3)c(F)c2)C(=O)O1 [linezolid]
growth [%]
Conditions | [1] | [2] | [3] | [4] | [5]
0.125 µg/mL | 99.8 | 95.8 | 95.5 | 91 | 97.09
0.25 µg/mL | 104 | 107 | 100 | 107 | 100.9
0.5 µg/mL | 107 | 103 | 102.6 | 96.4 | 104.2
1 µg/mL | 115.3 | 118 | 110 | 110 | 111.8
2 µg/mL | 118 | 127 | 115 | 116 | 110.5
4 µg/mL | 63.9 | 68.8 | 33.8 | 39.1 | 19.3
8 µg/mL | 11.6 | 8.82 | 3.81 | 6.38 | 1.53
16 µg/mL | -1.59 | -2.94 | -3.98 | -4.91 | -2.62
32 µg/mL | -3.09 | 6.84 | -4.78 | -5.61 | -3.83
64 µg/mL | -3.12 | -3.23 | -4.33 | -4.54 | -2.98
128 µg/mL | -2.64 | -2.79 | -4.25 | -4.77 | -2.93
256 µg/mL | -2.49 | -2.78 | -4.11 | -4.13 | -2.81

M. abscessus ATCC 19977 and its deletion, point and complemented mutants after 5 days of drug at 37 °C plus 24 h of resazurin. Growth in % of untreated wells at the dose given (lower = more inhibition); checkerboards give % inhibition (higher = more inhibition); IC50 from the fitted curve (lower = more potent). No active / inactive call. IC50 values come from the same 384-well curves. Growth is not capped and can exceed 100%. The direction of the checkerboard scale is read from the raw signals. Capreomycin is a mixture.
